Among the data in article PMC6212790 are binding signal values, retold here.

This is one part of the list. At the low end of the ranking, values are background and their order means little.

For the assay, the target named is T1, GST-Rok (full length) (UniProt O34857).
T1 sequence: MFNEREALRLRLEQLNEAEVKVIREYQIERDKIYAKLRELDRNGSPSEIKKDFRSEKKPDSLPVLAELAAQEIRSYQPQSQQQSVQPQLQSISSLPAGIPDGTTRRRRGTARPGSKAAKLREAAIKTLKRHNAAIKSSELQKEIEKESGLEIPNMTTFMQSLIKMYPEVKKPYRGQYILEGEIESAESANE
The assay can be described thus: protein binding microarray.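 Also: rank score from −0.5 (least bound) to 0.5 (best bound).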 The following applies: Rok is a gene silencer of Bacillus subtilis; high values mean tight binding; most listed sequences are background and not binding sites; double strand, one strand shown.
In the case of TCACTTCA, the binding signal is -0.0825 E-score.
For the sequence CCGTATAG, the binding signal came out at 0.0256 E-score.
Under TGAGGCCA stands -0.363 E-score.
With TATGATCA, the binding signal turned out to be 0.168 E-score.
In the case of GCACCAGA, the binding signal was -0.107 E-score.
With CCACCCGG, the binding signal is -0.16 E-score.
Consider ATCGAACA, for which the binding signal was 0.029 E-score.
TCCTCAAA: the binding signal is -0.206 E-score.
With AGGTGACC, the binding signal was -0.41 E-score.
Sequence CTGTCTTA gave a binding signal of 0.115 E-score.
Regarding ATCTTGAG, the binding signal is -0.0957 E-score.
The same measure for AAATGGGG: -0.23 E-score; for CAAGTAAG: -0.0652 E-score.
GAGAGACC: the binding signal was -0.228 E-score.
With CCTAACGA, the binding signal is -0.117 E-score.
The sequence AATACGAT displayed a binding signal of 0.21 E-score.
For the sequence CTCGACGC, the binding signal was -0.142 E-score.
For the sequence CGAGTGGA, the binding signal was -0.175 E-score.
With ACACCGCT, the binding signal is -0.047 E-score.
Consider CGACCCAA, for which the binding signal is -0.139 E-score.
Sequence CCATAATC had a binding signal of 0.0524 E-score.
As for ACTCTGTG, the binding signal is -0.129 E-score.
In the case of AACTCCAC, the binding signal was -0.0379 E-score.
In the case of AGAGGTAG, the binding signal was 0.172 E-score.
Regarding AGTGCTGC, the binding signal was -0.288 E-score.
As to CACTGACC, the binding signal was -0.0773 E-score.
The same measure for AAGTCTTA: 0.0533 E-score.
With CCTAGCTA, the binding signal stood at 0.107 E-score.
In the case of AGCCTAAT, the binding signal stood at 0.00339 E-score.
Regarding AACGATAC, the binding signal is 0.108 E-score.
Turning to GTCAAAAA, the binding signal was -0.156 E-score.
For CCAGGGCG, the binding signal is -0.372 E-score.
Take AGCCGGAC: the binding signal was -0.133 E-score.
Consider AATAGGGC, for which the binding signal is -0.052 E-score.
On to GCTTCCCC, for which the binding signal is -0.37 E-score.
In the case of CTACCTAG, the binding signal is 0.235 E-score.
Regarding GACAATGA, the binding signal was -0.0569 E-score.
Take ATACTTGG: the binding signal amounted to 0.0534 E-score.
As to AACTGGAC, the binding signal was determined as 0.0436 E-score.
On to AACAACCC, for which the binding signal is -0.247 E-score.
In the case of CCGAGGAC, the binding signal is -0.13 E-score.
Under CGGGTAAG stands -0.161 E-score.
For the sequence GAAAGAGA, the binding signal was -0.203 E-score.
Sequence CCTACCAC returned a binding signal of 0.224 E-score.
The same measure for GACACCGA: -0.207 E-score.
Under AAAGTAAG stands 0.153 E-score; under GAAGCCAA, -0.0136 E-score.
The same measure for AGACGATC: -0.0742 E-score; for CAGCTCTC: -0.173 E-score; for TATGACAA: 0.133 E-score.
TTGACAAA returned a binding signal of 0.122 E-score.
In the case of ACCTGGAT, the binding signal was -0.0366 E-score.
On to CAATGAGA, for which the binding signal is -0.124 E-score.
For AATAGCAG, the binding signal is 0.123 E-score.
The same measure for CAGGAGAA: -0.111 E-score; for ATAAATAG: 0.322 E-score; for GCGCCTAC: -0.102 E-score.
The same measure for ATACAAAC: 0.354 E-score; for ATCTTTAG: -0.0699 E-score.
With AACTCCAT, the binding signal was determined as 0.0879 E-score.
The same measure for GTCATGAA: -0.012 E-score; for GTCCTCGA: -0.00676 E-score.
For the sequence CTGTGATA, the binding signal was found to be 0.264 E-score.
For CCTACAAG, the binding signal stood at 0.0283 E-score.
AGACTAGA gave a binding signal of 0.173 E-score.
As to GGGCATAC, the binding signal is -0.057 E-score.
Under CAGCTGCC stands -0.263 E-score.
Sequence CTGGACTA had a binding signal of 0.0592 E-score.
Under AACCGACA stands -0.0855 E-score; under ACCCCCAT, -0.281 E-score.
As for CAAGCAGG, the binding signal is -0.207 E-score.
Under ACGATCTA stands 0.193 E-score; under AACGTCGA, -0.0718 E-score.
CGAAGAAA had a binding signal of 0.195 E-score.
As for AACAGACG, the binding signal was -0.0469 E-score.
As for ACATGCGA, the binding signal was -0.0645 E-score.
Turning to CTACTGAC, the binding signal was determined as 0.22 E-score.
Consider CTAGTGGC, for which the binding signal is -0.0795 E-score.
The same measure for GACTGCGC: -0.251 E-score; for CATACGGA: 0.101 E-score.
Under CATCGAAG stands -0.141 E-score.
The same measure for ATAACTCG: 0.248 E-score; for CAGTTTGC: -0.0541 E-score.
CAAGGCGG: the binding signal was -0.32 E-score.
Under CGGCCTGC stands -0.384 E-score; under ATCAGCGG, -0.175 E-score.
Regarding AAAGGCCT, the binding signal is -0.207 E-score.
The same measure for AGGCGTAA: -0.0798 E-score; for GTAGACTA: 0.241 E-score.
Under CCCAAACA stands -0.153 E-score; under CAAATAAA, 0.137 E-score.
As for CTCAATGA, the binding signal was -0.183 E-score.
Under ATCCTCCA stands -0.0743 E-score; under AGCATCCT, -0.213 E-score.
The same measure for CGTCCACG: -0.249 E-score.
As to CGGCGGAC, the binding signal is -0.326 E-score.
As for GAACGAAC, the binding signal stood at 0.0416 E-score.
Under GATCGGCA stands -0.0537 E-score.
Consider ATAGTCCG, for which the binding signal was -0.0334 E-score.
Under AAGGACAG stands -0.267 E-score; under CTGTCGCA, -0.0256 E-score.
With GTTTCTCA, the binding signal was 0.106 E-score.
As for ACATAAAT, the binding signal was 0.161 E-score.
As for ACCTGCCG, the binding signal is -0.195 E-score.
Consider CATAGACG, for which the binding signal is -0.0587 E-score.
On to CAGTCCAC, for which the binding signal is -0.234 E-score.
Regarding GGTTATCA, the binding signal was found to be 0.00708 E-score.
Under AACATCTC stands -0.0565 E-score.
For the sequence ACTGCCAC, the binding signal was -0.0928 E-score.
For the sequence GGCCGGTA, the binding signal was 0.00749 E-score.
Consider AAATTGTA, for which the binding signal was 0.236 E-score.
The same measure for CCCGCGAG: -0.31 E-score.
In turn, AATATCCC yielded a binding signal of 0.001 E-score.
For AGTGTGTG, the binding signal was -0.116 E-score.
For ATTGTCAG, the binding signal was determined as 0.0457 E-score.
In turn, ACATTGTG came in with a binding signal of 0.0964 E-score.
As to ACGTCCAC, the binding signal is -0.245 E-score.
In the case of CGTGTACA, the binding signal came to 0.0725 E-score.
In the case of ATGTGATA, the binding signal was found to be 0.214 E-score.
The same measure for AAAAGATG: -0.2 E-score; for AACTTTGC: 0.101 E-score; for CGCTTGAG: -0.15 E-score.
With CCATCGCC, the binding signal was -0.123 E-score.
Regarding CACTTGAC, the binding signal was -0.0272 E-score.
In turn, GATCTAAC gave a binding signal of 0.12 E-score.
As to AAAATTAG, the binding signal was 0.198 E-score.
CGGTGGAG: the binding signal was -0.216 E-score.
The same measure for GGGTCGTA: -0.203 E-score; for CAACTTCC: -0.033 E-score; for GCCTAAAA: -0.232 E-score.
The sequence ACCACTAC gave a binding signal of 0.207 E-score.
The same measure for ATGTAAAG: 0.221 E-score; for CTACCACA: 0.272 E-score.
As to CGTTGGAA, the binding signal was -0.145 E-score.
GAACTAGC gave a binding signal of 0.176 E-score.
In turn, ACCTATTG returned a binding signal of 0.182 E-score.
ATGGCTTA gave a binding signal of 0.0565 E-score.
Regarding CCCTTTCG, the binding signal is -0.336 E-score.
As to ACCAAGGC, the binding signal was -0.25 E-score.
Take CAGACATG: the binding signal is -0.129 E-score.
The same measure for CAGTTGAC: 0.17 E-score; for ATGCCACC: -0.16 E-score; for ACTGTGGC: -0.128 E-score.
Turning to CCCTAATC, the binding signal is -0.127 E-score.
The same measure for CAATCCAC: -0.149 E-score.
Take AGCCTACA: the binding signal is 0.0088 E-score.
The same measure for GGATAGGA: 0.0101 E-score.
Consider TGACATCA, for which the binding signal is -0.0354 E-score.
With GGCCTCCA, the binding signal was -0.321 E-score.
Under AAACCGTC stands 0.0453 E-score.
Under AAAGCCAG stands -0.172 E-score; under GTAGCACA, 0.19 E-score; under CGTTTAAA, -0.098 E-score.
Turning to GACAGTGC, the binding signal was -0.283 E-score.
Regarding AACGCTCT, the binding signal was -0.196 E-score.
Take CGCGTTCA: the binding signal came out at 0.0173 E-score.
Under CTTGCTTC stands -0.22 E-score.
For GGGCGGAC, the binding signal is -0.381 E-score.
The same measure for AACGTCCA: -0.291 E-score; for ACGAATAA: 0.0598 E-score; for AAAGACGA: 0.109 E-score.
As for GAACGTTC, the binding signal was -0.0316 E-score.
As for CGACTGCC, the binding signal is -0.213 E-score.
Take CGGGCTGC: the binding signal was -0.227 E-score.
Consider GGCGTACC, for which the binding signal is -0.127 E-score.
For CTCTCAGC, the binding signal was -0.189 E-score.
Take ACTCTCTA: the binding signal was -0.0619 E-score.
In the case of CGGATGAG, the binding signal is -0.112 E-score.
On to ACCGATAC, for which the binding signal is 0.117 E-score.
Regarding CTGAGTGA, the binding signal is -0.0653 E-score.
In the case of GCAATGTA, the binding signal was found to be 0.23 E-score.
Take GAGCAGAC: the binding signal was determined as 0.00267 E-score.
